Measurements from PubChem BioAssay AID1347434 (National Center for Advancing Translational Sciences (NCATS), 2020).
Hit rate of the full screen: of about 1,200 compounds, about 30 (2%) were called active. Inconclusive results, whose numbers are uncertain, are shown with a selection of clear calls. Calls follow the shape of the dose curve; as a rule, active = well fitted inhibition curve with a large enough effect; inconclusive = small, poorly fitted or top-dose-only effect; inactive = flat fitted curve, though single readings scatter. Potencies of inconclusive entries are doubtful fits and often do not repeat.

molecular target: Single-stranded DNA cytosine deaminase (Homo sapiens) (UniProt Q9GZX7); experiment: Confirmatory qHTS assay for inhibitors of Activation Induced Cytidine Deaminase (AID): AID signals; settings: recombinant AID, FRET deamination/UDG coupled fluorescence, 4 h; series mostly up to 115 µM
In short: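 Read 1 (AID) was measured at 540 ex/590 em after a 30 min NaOH step. The reaction was AID (1 uM, 4/3x stock) with UDG, compound at final 7.32 nM - 114 uM for 10 min, then DJC20/DJC23 substrate for 4 hr at room temperature. A UDG read at 560/665 serves as counterscreen.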
Potency is read from the fitted curve at half-maximal effect; tags tell the direction and shape of the fitted curve.

Chain of UniProt Q9GZX7 (Q9GZX7 whole entry, looked up): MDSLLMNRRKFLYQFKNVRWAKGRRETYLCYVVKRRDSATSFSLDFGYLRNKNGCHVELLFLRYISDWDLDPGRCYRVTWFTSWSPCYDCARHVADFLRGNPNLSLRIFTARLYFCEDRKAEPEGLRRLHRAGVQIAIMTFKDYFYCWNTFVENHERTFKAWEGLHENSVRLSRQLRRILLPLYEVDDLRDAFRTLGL

Potency, inconclusive:
COc1ccccc1C(=O)Nc1nc2nc(C)c(Cc3ccccc3)c(=O)n2[nH]1 25.1 µM [inhibitor, partial curve], CC(C)(C)c1ccc(S(=O)(=O)c2cnc(SCC(=O)Nc3ccc4c(c3)OCCO4)[nH]c2=O)cc1 31.6 µM [inhibitor, partial curve], Cc1ccc(C(=O)c2cn(Cc3ccccc3F)c3cc4c(cc3c2=O)OCO4)cc1 39.8 µM [inhibitor, partial curve], COc1ccc(Br)cc1CNC(=O)c1cnc2sc(N3CCCCCC3)nn2c1=O 11.2 µM [inhibitor, partial curve, poor fit], COc1ccccc1Nc1c2c(nc3ccc(NC(=O)/C=C/c4cc(OC)c(OC)c(OC)c4)cc13)CCCC2 31.6 µM [inhibitor, single point], [N-]=[N+]=Nc1ccc(C(=O)CSC[C@H](NC(=O)CC[C@H](N)C(=O)O)C(=O)NCC(=O)O)cc1 44.7 µM [inhibitor, single point], Cc1cccc(-n2c3nc(=O)[nH]c(=O)c-3cc3ccc(Cl)cc32)c1C 31.6 µM [inhibitor, partial curve], CC(C)Oc1ccc(C(=O)N(Cc2ccco2)Cc2cccs2)cc1 17.8 µM [inhibitor, partial curve, poor fit], CCn1c(=O)c2cc(C(=O)NCCCN(C)Cc3ccccc3)sc2c2ccccc21 39.8 µM [inhibitor, single point], CC(C)(C)C1CCc2c(sc(NC(=O)CCC(=O)O)c2C(=O)Nc2ccccc2C(F)(F)F)C1 (stereo unspecified) 44.7 µM [inhibitor, single point], Cc1ccc(Cl)cc1N1CCN(C(=O)c2cccn2-c2nnc(N3CCCC3)s2)CC1 31.6 µM [inhibitor, partial curve, poor fit], CCc1ccc(S(=O)(=O)c2nnn3c2nc(N2CCC(C(N)=O)CC2)c2cc(Cl)ccc23)cc1 31.6 µM [inhibitor, partial curve], Cc1ccc(CNC(=O)c2c[nH]n3c(=O)c(Cc4ccc(F)cc4Cl)c(C)nc23)cc1 35.5 µM [inhibitor, single point], CCn1c(=O)c2cc(C(=O)NCCCN3CCC(C)CC3)sc2c2ccccc21 31.6 µM [inhibitor, single point], Cc1cccc(N2CCN(C(=O)Cn3nc(Cc4cccnc4)c4ccccc4c3=O)CC2)c1C 31.6 µM [inhibitor, single point], CCOc1ccc(CCNC(=O)c2cn(CC)c3ccc(S(=O)(=O)N4CCCCCC4)cc3c2=O)cc1OCC 15.8 µM [inhibitor, partial curve, poor fit], N=c1n(CCN2CCCCC2)c2ccccc2n1CC(O)COc1ccc(Cl)cc1Cl (stereo unspecified) 39.8 µM [inhibitor, single point], CN1CCN(c2nc3c(S(=O)(=O)c4ccc(Br)cc4)nnn3c3ccsc23)CC1 28.2 µM [inhibitor, partial curve], COc1ccc(-c2nc(SCC(=O)Nc3ccc4c(c3)OCO4)c(-c3ccc(OC)cc3)[nH]2)cc1 22.4 µM [inhibitor, partial curve], Cc1c(-c2cccc(NC(=O)Nc3ccc(Cl)cc3)c2)nc2ncccn12 31.6 µM [inhibitor, partial curve, poor fit], Cc1ccc(Cn2cc(C(=O)c3ccc4c(c3)OCO4)c(=O)c3cc(C)ccc32)cc1 28.2 µM [inhibitor, partial curve, poor fit], CC(c1ccccc1)n1cc2c(c1-c1ccccc1Br)c(=O)n(C)c(=O)n2C (stereo unspecified) 39.8 µM [inhibitor, single point], Clc1ccccc1C(c1ccccc1)(c1ccccc1)n1ccnc1 28.2 µM [inhibitor, partial curve], O=C(C1CCC(Cn2c(=O)c3sccc3n(Cc3cccc(F)c3)c2=O)CC1)N1CCCCC1 (stereo unspecified) 31.6 µM [inhibitor, single point], Cc1cc(C)cc(-n2ccnc2SCC(=O)Nc2ccc(C)c(Cl)c2)c1 5.62 µM [inhibitor, partial curve, poor fit], COC1=C(OC)C(=O)c2ccccc2C1=O 63.1 µM [inhibitor, single point], COc1cc(Cl)c(C)cc1NC(=O)c1ccc2c(SCC(=O)O)c3c(nc2c1)CCCC3 31.6 µM [inhibitor, single point], COc1ccc(C(=O)c2cn(CC(=O)Nc3ccc4c(c3)OCCO4)c3ccc(OC)cc3c2=O)cc1 28.2 µM [inhibitor, single point], Cc1ccc2c(c1)-c1c(cnn1CC(=O)N1CCN(c3cc(C)ccc3C)CC1)CO2 35.5 µM [inhibitor, partial curve, poor fit], Cc1ccc(-c2n[nH]c3c2C(c2ccccc2Cl)N(c2ccc(C(=O)O)cc2)C3=O)cc1 (stereo unspecified) 35.5 µM [inhibitor, single point], CC(C)(C)OC(=O)N1CCC(c2c(C(=O)NCCN3CCOCC3)cnn2-c2ccccc2)CC1 28.2 µM [inhibitor, single point], CCn1cc2nc(SCc3cccc(C(F)(F)F)c3)n(CCc3ccccc3)c(=O)c2n1 31.6 µM [inhibitor, partial curve, poor fit], CC(=O)N1CCc2c(sc3c2c(=O)n(Cc2ccccc2)c(=O)n3Cc2cccc(Cl)c2)C1 39.8 µM [inhibitor, partial curve], O=S(=O)(Nc1nc2n(n1)C(c1ccccc1)C=C(c1ccc(Cl)cc1)N2)c1ccccc1 (stereo unspecified) 35.5 µM [inhibitor, single point], CCc1ccc(/C=C2/SC(=S)NC2=O)cc1 28.2 µM [inhibitor, partial curve, poor fit], Cc1ccc(CSc2nc(=O)c3c(C)cc(C)nc3n2C2CC2)cc1 39.8 µM [inhibitor, partial curve], CC(Sc1nc(-c2ccccc2)c(C#N)c(=O)[nH]1)C(=O)Nc1ccc(F)cc1 (stereo unspecified) 35.5 µM [inhibitor, single point], Cc1ccc(CNC(=O)c2cnn3c(C)c(Cc4c(F)cccc4Cl)c(C)nc23)cc1 28.2 µM [inhibitor, partial curve, poor fit], Cc1nc2nc(SCC(=O)N(Cc3ccccc3)C(C)C)nn2c(C)c1Cc1ccccc1Cl 25.1 µM [inhibitor, partial curve], Cc1ccccc1Cn1c(=O)n(CC2CCC(C(=O)N3CCC(C)CC3)CC2)c(=O)c2sccc21 (stereo unspecified) 31.6 µM [inhibitor, partial curve, poor fit], COc1ccc2c(c1)c(=O)c(C(=O)c1ccc(C)cc1)cn2Cc1ccccc1F 35.5 µM [inhibitor, partial curve, poor fit], Cc1ccc(NC(=O)c2ccc3c(O)c(S(=O)(=O)c4ccc(Cl)cc4)c(=O)[nH]c3c2)cc1 28.2 µM [inhibitor, partial curve], Cc1ccc(C2C=C(c3ccccc3)Nc3nc(NS(=O)(=O)c4ccc(C)cc4)nn32)cc1 (stereo unspecified) 31.6 µM [inhibitor, partial curve], COc1cccc(C(=O)Nc2nc3nc(-c4ccccc4)cc(=O)n3[nH]2)c1 35.5 µM [inhibitor, partial curve], CCOc1cc(CNc2ccc(O)cc2)cc(Cl)c1OCc1ccccc1 79.4 µM [inhibitor, single point], COc1ccccc1OCCSc1nc(-c2ccc(C(C)(C)C)cc2)nc2cc(=O)[nH]n12 39.8 µM [inhibitor, partial curve], COc1ccc(CNC(=O)c2cnn3c(C)c(Cc4c(F)cccc4Cl)c(C)nc23)cc1 25.1 µM [inhibitor, partial curve], Cc1cccc(CN2C(=O)c3ccccc3Sc3ccc(C(=O)N4CCCC4)cc32)c1 35.5 µM [inhibitor, single point], CCCCN(CC)CCNC(=O)c1cc2c(-c3ccc(Cl)cc3)nn(C)c2s1 31.6 µM [inhibitor, single point], Cn1c(=O)c2sccc2n2c(CCCC(=O)Nc3ccc(Oc4ccc(Cl)cc4)cc3)nnc12 28.2 µM [inhibitor, partial curve], Cc1ccc(-n2nc3c(N4CCC(C(=O)NC(C)c5ccccc5)CC4)nnc(C)c3c2C)cc1 (stereo unspecified) 17.8 µM [inhibitor, partial curve], Cc1ccc2c(c1)c(=O)c(C(=O)c1ccc3c(c1)OCO3)cn2Cc1cccc(F)c1 25.1 µM [inhibitor, partial curve, poor fit], COc1cccc(N2CCN(c3ncc4c(n3)CCN(Cc3ccc(Br)cc3)C4)CC2)c1 28.2 µM [inhibitor, partial curve], O=C(NCCCN1CCCCC1)c1ccc2c(c1)sc1nc(-c3ccc(F)cc3)cn12 35.5 µM [inhibitor, partial curve], CCCCN(C)CC(O)Cn1cc(/C=C/C(=O)c2ccc(OCC)cc2)c2ccccc21 (stereo unspecified) 31.6 µM [inhibitor, partial curve], CCc1ccc(C(=O)c2cn(Cc3ccccc3)c3cc(OC)c(OC)cc3c2=O)cc1 44.7 µM [inhibitor, single point], Cc1ccc(S(=O)(=O)Nc2nc3n(n2)C(c2ccc(Cl)cc2)C=C(c2ccccc2)N3)cc1 (stereo unspecified) 28.2 µM [inhibitor, partial curve], CCOC(=O)c1c(C)oc2nc(C)nc(N3CCN(c4cccc(C(F)(F)F)c4)CC3)c12 22.4 µM [inhibitor, partial curve, poor fit], Cc1ccccc1NC(=O)c1c(NC(=O)C(F)(F)F)sc2c1CCCCC2 35.5 µM [inhibitor, partial curve], CCCN(C(=O)c1sc2nc3n(c(=O)c2c1C)CCCC3)c1ccccc1C 35.5 µM [inhibitor, partial curve]

Potency, inactive:
Cc1cccc(C(=O)Nc2sc3c(c2C(=O)O)CCCC3)c1, COc1cccc(Nc2cc(-c3ccccc3)nc(C)n2)c1, CC(C)(C)c1ccc(C(=O)N2CCCC(c3nc4c(nnn4Cc4cccc(F)c4)c(=O)[nH]3)C2)cc1 (stereo unspecified), Cc1cccc(N(CC(=O)NCCSCc2cccc(Cl)c2)S(=O)(=O)c2ccccc2)c1C, FC(F)(F)c1cccc(N2CCN(Cc3nnc(-c4ccc5c(c4)OCO5)o3)CC2)c1, Cc1ccc(Cl)cc1NC(=O)C(C)n1nc(-c2ccccc2)ccc1=O (stereo unspecified), COc1cc(Cl)c(C)cc1NC(=O)CSc1ncc(S(=O)(=O)c2ccc(C(C)(C)C)cc2)c(=O)[nH]1, CC1CCN(S(=O)(=O)c2ccc3c(c2)c(=O)c(C(=O)NC(C)c2ccccc2)cn3C)CC1 (stereo unspecified), Cc1ccc2nc(Cl)c3cc(C(=O)N4CCCCC4C)sc3c2c1 (stereo unspecified), Cc1ccc(C)c(N2CCN(C(=O)Cn3nc(Cc4cccnc4)c4ccccc4c3=O)CC2)c1, Cc1ccc(C)c(N2CCN(C(=O)c3cccn3-c3nnc(N4CCCCC4)s3)CC2)c1, COc1ccc2c(C)cc(SCC(=O)Nc3nsc(-c4ccc(C(C)(C)C)cc4)n3)nc2c1, Cc1cccc(C)c1OCC(=O)N(Cc1ccco1)Cc1ccco1, O=C(c1ccc(F)cc1)c1cn(Cc2ccccc2)c2cc3c(cc2c1=O)OCO3, CCc1ccc(CN(Cc2ccco2)C(=O)c2ccc(C)cc2)cc1, CCOc1ccc(-c2noc(CSc3nnc(Cc4ccccc4)n3-c3ccc(F)cc3)n2)cc1
